Read counts are not given, so values of variants with three or more changes are uncertain.
B1: OR4K15 (parent)
chain: GUUAACGGUCAUAGGCCAUGGAAACUAGGAGCACCAUUUCGCUGCCAGUGAAGAAAUGAACAAAGAAAAUCUGGGCCAGGCAGGCAUCAAAAGAAAUAGUCUUGCGCUCAACCAGAAAGUCUGUAAUCAUUUUAAGGGUA

Variants of: B1
Test: self-cleavage, relative activity (ratio to wild type); higher = more cleavage; in vitro, sequencing; the parent is a self-cleaving ribozyme

Variant | self-cleavage
A51G A62G A66G | 1.2
G41U A69G A78G A94G A95G A111G | 0.03
A56G A69G A94G A117G A126G | 1.42
U120C U122C A129G | 0.46
U49A A96G U108C | 0.01
C32U A56G A89G | 1.25
C16G A91G U132C | 0.4
A52G U57A A67G A135G | 1.81
A82G A91G U130C | 0.08
C16U A47G A125G | 0.8
A54G U102C A118G | 0.25
G15U A22G A62U A78G | 0.2
A51G A59C A95G | 1.88
A66G A82U C101A | 0.04
C17U G44A A55G | 1.32
A52G A91G A117G | 1.76
A4G G8C A60G A63G A86G | 0.65
A90G A116G A118G | 0.16
C46U A89G A91G U130C | 1.55
A47U A89G U127C | 0.28
A30G A59G A66G | 0.78
A52G U120A U139C | 2.03
A54G A96G U108C | 0.01
U49C A67G A68G | 0.57

Variant | self-cleavage
C10U U103C A111G U139C | 0.01
G7U A91G A125G | 0.56
A55G A68G A86U G123A | 2.2
A18U A60G A89G U103C A110G | 0.16
U9G U43C A59G U72C | 0.15
U12C C42G A59U A117G A140U | 1.37
C61U A95U U108A | 0.02
A78U A118U U122C | 0.11
U43A A51G A68G | 0.86
G15A A52G A67G A135G | 0.56
A47U G104U A114G | 0.02
A18U A126C A140G | 1.12
A30G A110U A118G | 1.76
A4U A86G U130C | 0.79
U9C A23G A64G | 1.09
U12A A52C A54G | 1.43
A18U U38C A55G A60U | 1.61
U9C A24U A90G | 0.42
G79C A95U U102C A114G A116G | 0.02
A60G A78U A129G | 0.27
A5U A56G A111G U130C | 0.04
A33G A54U A110G | 0.11
A68U A110G A117U | 0.05
A22U U70C U122C | 0.75

Variant | self-cleavage
A51G A66G A67G A91G | 1.49
A56U A117G U122C | 1.55
A60G A86U C112U | 0.02
A30G U57A A59G A92G U100C | 1.69
A86G A96U U108C | 0.02
A64G A67G A78G A111G | 0.03
A18C A23C A52G G99A | 0.49
A11U U39A U108A | 0.03
A11G A13G A51U A94U A110G | 0.02
U37C U49A G73A | 0.1
U19C C32U U70C A89U | 0.73
A11G A27G G58A | 0.76
U19C A111G U122C | 0.01
A52G U103C A134G | 1.67
A51G A55G U139A | 0.49
U38C A55G A82C U102C A114C | 0.01
A11G U19C U43A | 1.47
A11G U57A U100C | 1.97
U37C U72C A98G A114G | 2.25
U43A U49A A68G A94G U103C A114U | 0.09
U3C A96G U122C U131A | 0.99
A47U A55G A95G A116G U124G U132C | 0.19
U37C A66U U100A | 0.25
A59U U87C A116G | 0.76

Variant | self-cleavage
U19A A52U A111U | 0.1
U19A A47G A63G A117G A129G | 0.97
U43A G80A U87C | 0.26
A66G A110C A116C | 0.02
A23G A64G U103C | 0.1
A27G U127C A129U | 0.31
U38A U130C A134U | 1.03
A33G A47G A67G C88U A129C U131C | 0.23
A56G G106A A140G | 0.01
U9C A24G A96G | 0.76
C32U U108C U122A | 0.01
A52G A110G A134G | 0.1
U3C A11U A67U A117U | 1.02
A36G A54G U127C | 1.08
A33G C46U A68G A111U | 0.19
U43C A67G A89G A92G U122A | 0.31
A5G A52G A117G | 1.09
A66G U72A A129U | 0.09
A5G A55G A64G | 1.67
U19C C25U A78U | 0.37
G20A A47G U87A | 1.16
A51G A110G U124C | 0.08
G29U U39C U70C A86G | 0.89
A4G G8A A82G | 0.77

Variant | self-cleavage
U43A A59G U70A A82U | 0.09
U49A G74A A91G | 0.16
U12C A90G A111G A117G U120C | 0.01
A56G A78G A118G | 0.1
A22U A47G A126G U130C | 0.32
U12C A24G U39C A60U A67G | 0.57
A114G U122C U130C | 0.03
A22G A52G A86G A96G | 1.21
U3C A96G U103C | 1.04
A30G A86G G99A | 0.12
U2C A11U A33G A59U A129G | 0.49
A55U A56G A95G U132C | 2.03
A51U A78U A95G | 0.84
U19C A52G A92G U102A | 0.71
C40G U100C A117G | 2.13
U9C U87C U130C | 1.11
A5G A24G A56G | 0.96
U38C A56G A67G A89G | 0.75
U19C U57C A86G A89G A98U U132C | 0.68
A52G A56G A89G A114G | 0.33
A68G U87A A94G U127A | 2.26
U9C U12C A68U A94U U108C A111U | 0
A5G A27G U102C | 1.09
U3C A52G G83A A94G U97C | 1.37

Variant | self-cleavage
A52G A91G U131C | 0.51
G28C U39A A82G U108G | 0.02
U38C U102A U108C | 0.01
A51G U57A A67G A126G U130C | 0.37
A5G A66U U102C A125G A126U | 0.44
U49C A111G A114U | 0.02
A18G A22U A52C U108C | 0.03
A33G U38C A91U A118G | 0.99
U9C U38C A55U C71A A96G | 1.03
U103C U122C U133C | 0.69
A67G U122C A125G | 0.3
A66G A86G A110G | 0.17
A22U U49C A95G | 2.34
A36U U38C U130C | 1.61
A11U A13G A66G U108C | 0.03
G28A A64G G115U | 0.05
A59G C101U U108C | 0.01
A13G A116G A125G | 0
A92G A95G A98U | 2.71
U102A U103C A114U | 0.01
U43A A59G U70C A90G U100C U122A | 1.28
U39C A56G A94U | 1.67
U2A A64G A68G | 0.69
U39C A64G U72C A125G | 0.09

Variant | self-cleavage
U37C A47U A63G C77U A116G | 1.06
A54G A89G U120C | 0.31
G31U U38C C46U | 2.11
A4G U103A C128A | 0.54
A5G A69G A126G | 0.85
A67G U87C A129G | 0.48
A24G A82G U132A | 0.76
A13G A60G C107A U127C | 0.07
A11U A36G A51G A94G U102C | 0.72
U102A U122C A135U | 0.74
A18G A33G A47G | 0.13
A24G A90G A96G U124A | 0.5
G7A U38C A54C A89G U139C | 2.13
A52G A66G A82U A117G U124C | 0.12
A24G A64G A95U | 0.24
A18G A33G A62G A129G | 1.63
A5G A11G U103C U122C | 0.59
A23G A54G A114G | 0.69
A69C U87C U97G A116G | 0.67
U38C U39A U70A A94G U133C A140G | 1.23
A30G A62U U122C A126G | 0.96
A33G U38C U97C | 1
A24C A55U A60G | 0.28

Source: the RNAGym collection of RNA variant scans (doi:10.7554/elife.90254)
